Assay results as given in PubChem BioAssay AID1768 (National Center for Advancing Translational Sciences (NCATS), 2009).
Values joined by “and” are separate entries in the source; they are usually repeats but may differ in a detail not shown here. Identical values can stand only once. The campaign covered roughly 270,000 compounds. About 620 (0.23%) were called active. Inconclusive results, whose numbers are uncertain, are shown with a selection of clear calls. The call rests on the fitted dose curve; in most records, active means well fitted inhibition curve with a large enough effect in the polarisation, with a control signal flat (not every such curve was filed as active); inconclusive means small, poorly fitted or top-dose-only effect, or effect the other way, or a change in a side signal; inactive means no such curve, though single readings can be large or run the other way; the % refers to the polarisation. Where the call is inconclusive, the potency comes from a doubtful curve fit. “Side channel” marks fits to a control or component signal instead of the main read-out.

The compounds below were run against Menin (Homo sapiens) (UniProt O00255) (assay: qHTS Assay for Inhibitors Targeting the Menin-MLL Interaction in MLL Related Leukemias: Competition With Texas Red Labeled MLL-derived Mutant Peptide). Details: fluorescence polarization; series mostly up to 61.6 µM.
Potency means the concentration at half of the fitted maximal effect; tags describe the fitted curve by direction and shape or compound fluorescence and quenching.

Chain of UniProt O00255 (O00255 whole entry, looked up): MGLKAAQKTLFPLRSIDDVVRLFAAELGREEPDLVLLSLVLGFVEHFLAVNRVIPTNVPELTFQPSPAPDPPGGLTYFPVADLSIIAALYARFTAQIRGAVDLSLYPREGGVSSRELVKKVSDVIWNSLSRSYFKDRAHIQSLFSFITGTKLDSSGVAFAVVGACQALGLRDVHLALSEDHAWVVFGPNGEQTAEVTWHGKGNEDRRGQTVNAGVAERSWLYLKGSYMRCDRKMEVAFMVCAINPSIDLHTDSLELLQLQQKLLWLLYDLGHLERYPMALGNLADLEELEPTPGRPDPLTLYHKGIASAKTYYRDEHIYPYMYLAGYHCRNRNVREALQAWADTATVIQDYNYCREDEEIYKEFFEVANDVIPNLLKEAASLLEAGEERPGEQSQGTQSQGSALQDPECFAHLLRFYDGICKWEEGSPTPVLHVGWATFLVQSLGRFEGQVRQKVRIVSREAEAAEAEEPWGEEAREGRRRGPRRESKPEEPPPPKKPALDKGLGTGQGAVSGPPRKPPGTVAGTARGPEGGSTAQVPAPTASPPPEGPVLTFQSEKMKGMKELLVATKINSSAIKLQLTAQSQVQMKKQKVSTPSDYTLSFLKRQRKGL

SMILES	Potency
Cc1ccc(C)c(NS(=O)(=O)c2ccc(NC(=O)CSc3ccc(Cl)cc3)cc2)c1	inconclusive: 10 µM [quencher, side channel, partial curve]
O=C(CCN1C(=O)/C(=C/c2ccccc2)SC1=S)Nc1ccccn1	inconclusive: 10 µM [quencher, side channel, partial curve]
CCOc1ccc(N(C(=O)OC(C)(C)C)C(=O)c2ccc(O[Si](C)(C)C(C)(C)C)cc2)c(I)c1	inactive
CCCNC(=O)c1ccc2c(c1)nc(C)n2-c1cccc(Cl)c1	inconclusive: 20 µM [fluorescent, side channel, single point]
COc1ccc(/C=N/NC(=O)CCCOc2ccc(Cl)cc2Cl)cc1[N+](=O)[O-]	inconclusive: 7.94 µM [quencher, side channel, full curve]
COc1ccc(CCn2c(N)c(C(=O)NCc3ccco3)c3nc4ccccc4nc32)cc1OC	inactive
OC(COCc1ccccc1)Cn1cnc2ccccc21 (stereo unspecified)	inactive
Cc1ccc(Cn2ccc(=O)c(OCc3c(Cl)cccc3Cl)c2C)cc1	inconclusive: 2 µM [fluorescent, side channel, full curve]
C/C(=N\OCC(=O)N/N=C/c1ccc(C)cc1O)c1cccs1	inconclusive: 17.8 µM [quencher, side channel, single point]
C/C(=N\NC(=O)c1c[nH]c2ccccc12)c1ccc(C)s1	inconclusive: 35.5 µM [inhibitor, single point]
O=C(CNC(=O)c1ccc(-c2ccccc2)cc1)OCc1ccc(Cl)cc1	inconclusive: 31.6 µM [inhibitor, single point]
COC(=O)c1ccc(COC(=O)c2ccccc2OC)cc1	inactive
Nc1c(S(=O)(=O)c2cccs2)c2nc3ccccc3nc2n1Cc1ccc2c(c1)OCO2	inconclusive: 39.8 µM [inhibitor, single point]
COc1ccc(-n2ccnc2SCC(=O)NCc2ccco2)c(OC)c1	inconclusive: 28.2 µM [inhibitor, single point]
O=C(CCc1ccccc1)NNC(=O)c1ccc(NC(=O)c2ccccc2)cc1	inconclusive: 10 µM [inhibitor, partial curve]
COc1cc(OC)c(NC(=O)Nc2ccc(OC)c(OC)c2)cc1Cl	inconclusive: 35.5 µM [quencher, side channel, single point]
CN1CCN(c2ncc3nc(-c4ccccc4)c(=O)n(Cc4ccc(F)cc4)c3n2)CC1	inactive
O=C1C(O)=C(O)C(=O)C(O)=C1O	inactive and inconclusive: 28.2 µM [quencher, side channel, single point]
O=[N+]([O-])c1ccc(N/N=C/c2ccccc2)c(F)c1	inconclusive: 39.8 µM [quencher, side channel, single point]
CCN(CC)CCNC(=O)c1sc2nc(-c3ccccc3)cn2c1C	inconclusive: 39.8 µM [inhibitor, single point]
Cc1ccc(C(=O)Nc2nc3ccc(S(C)(=O)=O)cc3s2)cc1C	inconclusive: 22.4 µM [fluorescent, side channel, single point]

SMILES	Potency
CC(C)(C)c1cc(S(=O)(=O)CCc2ccccn2)cc(C(C)(C)C)c1F	inconclusive: 15.8 µM [fluorescent, side channel, partial curve]
On1onc2c3cc(-c4ccccc4)nc3ccc21	inconclusive: 11.2 µM [quencher, side channel, partial curve]
Oc1cccc(/C=N\Nc2nncc(-c3ccccc3)n2)c1	inconclusive: 3.55 µM [quencher, side channel, partial curve]
COc1ccccc1N1C(=O)CCC1(C#N)c1ccccc1 (stereo unspecified)	inactive
COc1ccc(/C=C2\SC(=S)N(CCC(=O)Nc3cccc(C(=O)O)c3)C2=O)cc1	inconclusive: 15.8 µM [quencher, side channel, partial curve]
Cc1cc(C)n(/N=C/c2ccc(C(C)C)cc2)c(=O)c1C#N	inconclusive: 25.1 µM [fluorescent, side channel, single point]
CCOC(=O)CNC(=O)C1(/C=C/c2ccccc2)CC(=O)N1c1ccc(OC)cc1 (stereo unspecified)	inconclusive: 31.6 µM [inhibitor, single point]
COc1ccc(/C=N/NC(=O)c2nnn(-c3nonc3N)c2CN(C)C2CCCCC2)cc1	inconclusive: 39.8 µM [inhibitor, single point]
Cc1cccc(NC(=O)N[C@@H](C)C(=O)O)c1	inactive
O=C(O)CC(c1ccccc1F)N1Cc2ccccc2C1=O (stereo unspecified)	inconclusive: 11.2 µM [inhibitor, partial curve]
CC(C)(C)c1ccc(/C=C2\Oc3cc(O)ccc3C2=O)cc1	inconclusive: 22.4 µM [quencher, side channel, partial curve]
Cc1ccc(NC(=O)CSc2nnc(-c3cnccn3)n2Cc2ccco2)cc1	inconclusive: 39.8 µM [inhibitor, single point]
Cc1ccc(C(=O)Oc2cc(C)n(C)c(=O)c2)cc1	inactive
COc1ccc2[nH]cc(CCNc3ncnc4ccc(-c5ccccc5C#N)cc34)c2c1	inconclusive: 20 µM [quencher, side channel, partial curve]
CCOC(=O)c1c(C)[nH]c(C)c1C(=O)CSc1nnc(-c2ccco2)n1Cc1ccccc1	inconclusive: 0.708 µM [inhibitor, full curve]
CCC(=O)Nc1ccc(NC(=O)CSc2nnnn2-c2ccc(OC)cc2)cc1	inconclusive: 39.8 µM [fluorescent, side channel, single point]
COc1ccc(C(=O)n2nnc3ccccc32)cc1Br	inconclusive: 5.01 µM [inhibitor, single point]
CCN(CC)CCn1c(=N)n(CC(O)c2ccco2)c2ccccc21 (stereo unspecified)	inconclusive: 39.8 µM [inhibitor, single point]
Cc1ccc(-c2cc(-c3ccccc3[N+](=O)[O-])[nH]n2)c(O)c1	inconclusive: 31.6 µM [quencher, side channel, single point]
COc1cccc(Oc2cn[nH]c2-c2ccc(OC)cc2O)c1	inconclusive: 20 µM [quencher, side channel, partial curve]
C[C@@H](NC(=O)OC(C)(C)C)C(=O)NCC1CCC(C(=O)N[C@@H](Cc2ccccc2)C(=O)O)CC1 (stereo partly specified)	inactive

SMILES	Potency
CCOC(=O)C1=C(C)N=C2SC(C)C(=O)N2C1c1ccc(C(=O)OC)cc1 (stereo unspecified)	inactive
NNc1nc2ccc(Cl)cc2s1	inconclusive: 39.8 µM [quencher, side channel, single point]
CN1CCc2c(sc3nc(NN)n(-c4ccc(Cl)cc4)c(=O)c23)C1	inconclusive: 17.8 µM [quencher, side channel, partial curve]
O=C(CN1CCOCC1)Nc1ccc(-c2nc3ccccc3[nH]2)cc1	inactive
COc1cc(C(=O)OCC(=O)NCc2ccco2)cc(OC)c1OC	inactive
COc1ccc(N(C(=O)c2ccco2)C(C(=O)NC2CCCC2)c2ccc(C)cc2)c(OC)c1 (stereo unspecified)	inconclusive: 3.16 µM [fluorescent, side channel, partial curve]
COc1cccc(-c2nnc3n2N=C(C(C)(C)C)CS3)c1	inconclusive: 39.8 µM [inhibitor, single point]
CCOc1ccc2nc(N3C(=O)/C(=C/c4ccccc4)NC3=S)sc2c1	inconclusive: 28.2 µM [quencher, side channel, partial curve]
O=C(Nc1ccccc1F)c1ccc2c(c1)CCN2S(=O)(=O)c1ccccc1	inconclusive: 15.8 µM [quencher, side channel, partial curve]
CCCCCC(=O)Nc1nc(C)c(-c2csc(Nc3ccccc3OC)n2)s1	inconclusive: 10 µM [quencher, side channel, partial curve]
CC1(C)CC(=O)C2=C(C1)Nc1ccccc1NC2c1cc(Cl)ccc1O (stereo unspecified)	inconclusive: 35.5 µM [inhibitor, partial curve]
CCO[C@@H]1OC(C(=O)N2CCN(Cc3ccc4c(c3)OCO4)CC2)=C[C@H](c2ccc3c(c2)OCO3)[C@H]1CCCO	inconclusive: 8.91 µM [fluorescent, side channel, partial curve]
Nc1cccnc1Sc1cccc(Cl)c1	inconclusive: 44.7 µM [quencher, side channel, partial curve, poor fit]
COc1cccc(NC(=O)CSc2nc3c(sc4ccccc43)c(=O)n2CCCN2CCCC2)c1	inconclusive: 31.6 µM [fluorescent, side channel, single point]
COc1ccc(OC)c(NC(=O)Nc2ccc(Cl)cc2)c1	inconclusive: 15.8 µM [quencher, side channel, partial curve]
NC(=O)C1CCN(CC(=O)Nc2ccccn2)CC1	inconclusive: 6.31 µM [inhibitor, single point]
Brc1ccc(/C=N/Nc2ccccc2)cc1	inconclusive: 35.5 µM [quencher, side channel, single point]
CCn1c(C)c(C(C)=O)c(N2CCN(C(c3ccccc3)c3ccccc3)CC2)nc1=S	inconclusive: 39.8 µM [fluorescent, single point]
COC(=O)[C@H](Cc1c[nH]c2ccccc12)NC(=O)CCCc1c[nH]c2ccccc12	inconclusive: 20 µM [quencher, side channel, partial curve]
